# Laboratory results published in PubChem BioAssay AID651820 (National Center for Advancing Translational Sciences (NCATS), 2012).
# Out of some 340,000 compounds screened, about 12,000 (3.5%) were called active. The shares of active, inactive and inconclusive entries below differ from those in the screen. Calls follow the shape of the dose curve; as a rule, active = well fitted inhibition curve with a large enough effect; inconclusive = small, poorly fitted or top-dose-only effect, or another doubt; inactive = no such curve, though single readings can be large or run the other way. Potencies of inconclusive entries are left out as doubtful fits.
# Experiment: qHTS Assay for Inhibitors of Hepatitis C Virus (HCV)
# Conditions: Huh7.5.1 HCVcc-Cre (HCVcc is cell-culture hepatitis C virus) infection, luciferase reporter, 44 h; activity change, negative = inhibition: at 41.8 µM (top of the series) unless noted
# Summary of the method: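 Reporter virus HCVcc-Cre (~0.5 moi) infects cells exposed to compound; seeding density 1,000 cells/well with 4 h settling beforehand. Luminescence, 15 sec read, taken 44 h post-infection following a 15 min RT substrate incubation.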
# % is scaled to controls: 0 for no effect and ±100 for the full control effect; potency is read from the fitted curve at half-maximal effect; tags tell the direction and shape of the fitted curve.
Compound,"activity change, negative = inhibition",Potency
O=C(Cc1ccccc1)NCC(=O)OCC(=O)c1ccc(Cl)cc1,inactive: 7.16%,–
COc1ccc(C2=NS(=O)(=O)N(C)C(C(=O)Nc3cc(C)ccc3O)=C2)cc1OC,–,"inconclusive [inhibitor, single point]"
C[C@H](CO)N1C[C@H](C)[C@@H](CN(C)C(=O)Nc2ccc(C(F)(F)F)cc2)Oc2ccc(NC(=O)C3CCCCC3)cc2C1=O,–,"inconclusive [inhibitor, partial curve]"
O=C(Cc1n[nH]c(=O)c2ccccc12)OCC(=O)N(Cc1ccccc1)Cc1ccccc1,–,"inconclusive [inhibitor, single point]"
O=C(N/N=C/c1cccc(F)c1)NC1CCCCC1,–,"inconclusive [inhibitor, partial curve, poor fit]"
COc1ccc(N2CCN(C(=O)CN(c3cccc(OC)c3)S(=O)(=O)c3ccccc3)CC2)cc1,–,"inconclusive [inhibitor, partial curve]"
COc1cc(/C=C(\C#N)c2nc(-c3cc4ccccc4oc3=O)cs2)ccc1O,–,"inconclusive [inhibitor, partial curve]"
Cc1ccc(NC(=O)CN(C)S(=O)(=O)c2cccc3cccnc23)cc1F,inactive: 8.4%,–
COc1cccc(NC(=O)c2ccccc2Oc2ccccc2)c1,–,"inconclusive [inhibitor, single point]"
COC(=O)Cc1c(C)c2ccc(OCC(=O)c3ccc(OC)c(OC)c3)cc2oc1=O,–,"inconclusive [inhibitor, single point]"
Cc1ccc(-c2nc3cc(NS(=O)(=O)c4ccc(C)cc4)ccc3o2)cc1,–,"inconclusive [inhibitor, single point]"
O=C(Nc1ccc(Br)cc1)C1CCCN1S(=O)(=O)c1cccs1 (stereo unspecified),–,"inconclusive [inhibitor, single point]"
COC(=O)c1ccc(/C=C/C(=O)c2cccc(OC)c2)cc1,–,"inconclusive [inhibitor, single point]"
CC1CCN(c2ccc(C(=O)Nc3ccc4c(c3)OCO4)cc2[N+](=O)[O-])CC1,–,active: 4.47 µM
Cc1cc(=O)oc2c3c(cc(OCC(=O)NCC(=O)N[C@H](C(=O)O)C(C)C)c12)OC(C)(C)CC3,inactive: -1.23%,–
CC(C)OC(=O)c1ccc(NC(=O)c2cccc(-n3cnnn3)c2)cc1,–,"inconclusive [inhibitor, single point]"
CC(C)(CCc1ccccn1)C(=O)CCCc1ccccn1,inactive: 6.53%,–
O=[N+]([O-])c1cc2oc3c(c2c(C=NCc2ccncc2)c1O)CCCC3,–,"inconclusive [inhibitor, single point]"
CC(C)n1c(SCC(=O)Nc2ccccc2N2CCOCC2)nc2c1c(=O)n(C)c(=O)n2C,–,"inconclusive [inhibitor, full curve, poor fit]"
Cn1c(OCc2cccnc2)nc2c1c(=O)n(Cc1ccccc1)c(=O)n2C,–,"inconclusive [inhibitor, single point]"
O=C(N=C1c2ccccc2CN1c1cccc(Cl)c1)c1cccnc1,inactive: 0.568%,–
CCOc1ccc(C(=O)N2CCC(C(=O)c3ccc4c(c3)OCCO4)CC2)cc1,–,active: 10 µM

Compound,"activity change, negative = inhibition",Potency
COc1ccc(NC(=O)C2CCN(S(=O)(=O)c3ccc(OC)c(OC)c3)CC2)c(OC)c1,–,"inconclusive [inhibitor, partial curve]"
O=S(=O)(c1cc(Cl)cc(Cl)c1O)N1CCC2(CC1)OCCO2,–,"inconclusive [inhibitor, single point]"
OCC[C@H]1C[C@H](O)[C@@H](O)[C@@]2(CCCO2)O1,inactive: 26.2%,–
CCOc1cc(N2CCOCC2)c(OCC)cc1NC(=O)COC(=O)c1c(CC)noc1C,–,"inconclusive [inhibitor, partial curve]"
CCCN1CCN(CCCNC(=O)c2ccc3c(c2)NC(=O)c2ccccc2S3)CC1,inactive: -0.354%,–
Cc1ccc(NC(=O)Nc2ccc3c(c2)N(C)C(=O)CS3)nc1,–,"inconclusive [inhibitor, single point]"
CN(C)CCCn1c2c(c(SCC(=O)Nc3cccc4ccccc34)nc1=O)CCC2,–,"inconclusive [inhibitor, partial curve, poor fit]"
CC(C)(C)NC(=O)c1ccc(COc2ccccc2Br)o1,–,"inconclusive [inhibitor, single point]"
CC(NC(=O)/C(C#N)=C/c1ccc(OCC(=O)O)cc1)c1ccccc1 (stereo unspecified),inactive: 14.3%,–
CN(C)/C=N/C1=C(C#N)C(c2cccs2)c2ccc3ccccc3c2O1 (stereo unspecified),–,"inconclusive [inhibitor, full curve]"
C/C(=N\NC(=O)c1cc(-c2ccc(C)s2)nc2ccccc12)c1cccnc1,–,"inconclusive [inhibitor, single point]"
COc1ccc(S(=O)(=O)N2C(=O)/C(=C3\SC(N)=NC3=O)c3ccccc32)cc1,–,"inconclusive [inhibitor, single point]"
Cc1nc(NCCCN2CCOCC2)c2oc3ccccc3c2n1,–,"inconclusive [inhibitor, single point]"
Cc1ccc(-c2nnc(Nc3ccc4c(c3)OCO4)c3ccccc23)cc1S(=O)(=O)NC(C)C,–,"inconclusive [inhibitor, single point]"
COc1ccc(CC(=O)Nc2ccc3c(C)cc(=O)oc3c2)cc1OC,–,"inconclusive [inhibitor, partial curve, poor fit]"
CCS(=O)(=O)NCC(c1ccco1)N1CCN(c2ccccc2)CC1 (stereo unspecified),–,"inconclusive [inhibitor, partial curve]"
CC(C)CCn1c(=O)c(C(=O)NCc2ccc3c(c2)OCO3)c(O)c2ccccc21,–,"inconclusive [inhibitor, partial curve]"
COc1ccc(C(CNC(=O)c2cc3ccccc3cc2O)N2CCOCC2)cc1 (stereo unspecified),inactive: 3.37%,–
O=C1CCCC2=C1C1(O)C(=O)c3ccccc3C1(O)O2 (stereo unspecified),–,"inconclusive [inhibitor, full curve]"
CCN(CC)CCNCC1C(=O)O[C@@H]2C[C@@]3(C)CCC[C@H](C)C3=C[C@H]12 (stereo partly specified),–,"inconclusive [inhibitor, partial curve]"
O=C(CSc1nc2ccccc2o1)Nc1nc(-c2ccccc2)c(-c2ccccc2)s1,–,"inconclusive [inhibitor, partial curve]"
Cc1ccc(NC2CCCN(C(=O)CCc3scnc3C)C2)cc1C (stereo unspecified),inactive: 8.42%,–

Compound,"activity change, negative = inhibition",Potency
COc1ccc(S(=O)(=O)Nc2cccc3c2O[C@H](CN(C)C(=O)NC2CCCCC2)[C@@H](C)CN([C@H](C)CO)C3=O)cc1,–,"inconclusive [inhibitor, single point]"
Cc1nnc(SCC(=O)NNC(=O)c2ccc(Br)cc2)n1C,inactive: 13.7%,–
CCCN1CCC(NCC(C)c2ccccc2)CC1 (stereo unspecified),–,"inconclusive [inhibitor, partial curve]"
Cc1oc(-c2ccc(Cl)cc2)nc1CS(=O)CC(=O)NCCCN1CC(C)CC(C)C1 (stereo unspecified),–,"inconclusive [inhibitor, partial curve]"
c1ccc(COc2ccc(OCCCN3CCCC3)cc2)cc1,–,active: 10 µM
Cc1cccn2c(=O)c3cc(C(=O)NCc4cccnc4)c(=N)n(CC4CCCO4)c3nc12 (stereo unspecified),inactive: 21.4%,–
COc1ccc(NC(=O)c2c3c(nc4ccccc24)CCN(Cc2ccccc2)C3)c(OC)c1,–,"inconclusive [inhibitor, partial curve]"
O=C(c1ccccc1-c1ccccc1)N1CCN(c2ccccn2)CC1,–,"inconclusive [inhibitor, full curve, poor fit]"
O=C(N/N=C/c1cccs1)c1cccc(NC(=O)c2ccc(Cl)cc2)c1,inactive: 1.03%,–
CCOC(=O)C1CCCN(C(=O)c2cc(COc3ccc(C)nc3)on2)C1 (stereo unspecified),–,active: 8.91 µM
Cc1ccc(OCC(=O)Nc2ccncc2)cc1,–,"inconclusive [inhibitor, single point]"
O=C(CCSc1nc(-c2ccco2)cc(C(F)(F)F)n1)N1CCCc2ccccc21,–,"inconclusive [inhibitor, single point]"
COc1ccc(NC(=O)/C(C#N)=C/c2ccc[nH]2)c(OC)c1,inactive: -2.34%,–
CCOC(=O)Cn1c(=O)n(Cc2ccccc2)c(=O)c2cccnc21,–,"inconclusive [inhibitor, partial curve]"
Cc1ccc(C(=O)OC(C)C(=O)Nc2ccc3c(c2)OCO3)c(O)c1 (stereo unspecified),–,"inconclusive [inhibitor, single point]"
CCN(CC)c1ccc(/C=N/NC(=O)c2cccc(S(=O)(=O)Nc3ccccc3OC)c2)c(O)c1,–,active: 10 µM
c1ccc(C2CCCN(Cc3nc(CC4CC4)no3)CC2)cc1 (stereo unspecified),inactive: -9.19%,–
O=C(NCc1ccc(F)cc1)N[C@@H](Cc1ccccc1)C(=O)O,inactive: 28%,–
Cc1ccc(N2C(=O)C(CN3CCCCC3)C2c2ccccc2)cc1 (stereo unspecified),–,"inconclusive [inhibitor, single point]"
COc1ccc(OC)c(NC(=O)COC(=O)c2ccc(OC)c(S(=O)(=O)N3CCCC3)c2)c1,–,"inconclusive [inhibitor, single point]"
O=C(Nc1ccc(N2CCCC2)cc1)c1ccccc1[N+](=O)[O-],–,"inconclusive [inhibitor, partial curve]"
O=c1c(Cc2ccc(Cl)cc2)c(O)ccn1Cc1ccccc1,–,"inconclusive [inhibitor, single point]"
